Measurements: patent US20070142318A1, “Compositions, methods and kits for repressing virulence in gram positive bacteria” (priority 2004, published 2007)

Test system: CodY A207V A207V (Bacillus subtilis)
Assay: EMSA
Settings: GTP + ILV; also >500 without effectors

## dpp promoter region
  Kd: > 500 nM
